# Test results from article PMC11995724, “Antibiotic target discovery by integrated phenotypic and activity-based profiling of electrophilic fragments” (Cell chemical biology, 2025).
# About 75 (2%) of roughly 3,200 compounds showed an effect of 50% or more. This is one part of the list.
# Tested on: T1, S. aureus MSSA476
# T1 construct: MSSA476
# Parameters: species or system S. aureus MSSA476 (TSB) or V. cholerae SAD30 (LB); 384-well bacterial growth screen at 25 uM, OD600 relative to DMSO control
# Conditions: relative growth, OD600, TSB; 25 µM; inhibitor
row,SMILES,% of control remaining
1,"CC(C)N(Cc1ccccc1)C(=O)CCl [5-J20, N-benzyl-2-chloro-N-(propan-2-yl)acetamide]",88.5246%
2,"Cc1ccc(C)c(NC(=O)C(C#N)=Cc2ccc3c(c2)OCCO3)c1 [8-L11, 2-cyano-3-(2,3-dihydro-1,4-benzodioxin-6-yl)-N-(2,5-dimethylphenyl)prop-2-enamide]",108.216%
3,"C=CC(=O)N1CCCC(c2nn(C)cc2C(N)=O)C1 (centres unmarked) [1-D07, 1-methyl-3-[1-(prop-2-enoyl)piperidin-3-yl]-1H-pyrazole-4-carboxamide]",92.1319%
4,"CC1CCCCC1NC(=O)C(C#N)=Cc1cccc(O)c1 (centres unmarked) [8-E07, 2-cyano-3-(3-hydroxyphenyl)-N-(2-methylcyclohexyl)prop-2-enamide]",84.3154%
5,"C=CC(=O)NC[C@@H]1CCCN1c1ccccc1 [3-E03, N-{[(2S)-1-phenylpyrrolidin-2-yl]methyl}prop-2-enamide]",120.505%
6,"Cl.O=C(CCl)Nc1ccccn1 [5-B14, 2-chloro-N-(pyridin-2-yl)acetamide hydrochloride]",91.0747%
7,"O=C(CCl)Nc1sc2c(c1C(=O)c1ccccc1)CCCC2 [4-A06, N-(3-benzoyl-4,5,6,7-tetrahydro-1-benzothiophen-2-yl)-2-chloroacetamide]",152.835%
8,"COc1ccccc1[C@H]1C[C@H](NC(=O)CCl)C1 [7-L18, 2-chloro-N-[(1r,3r)-3-(2-methoxyphenyl)cyclobutyl]acetamide]",63.4223%
9,"C=CC(=O)Nc1cccc(C(F)(F)CF)c1 [2-O12, N-[3-(1,1,2-trifluoroethyl)phenyl]prop-2-enamide]",84.9434%
10,"CC(Cl)C(=O)NC1CCCN(c2ncccn2)C1 (centres unmarked) [7-C21, 2-chloro-N-[1-(pyrimidin-2-yl)piperidin-3-yl]propanamide]",90.4239%
11,"N#CC(=Cc1ccccc1OC(F)F)C(=O)Nc1ccccc1Cl [9-M21, N-(2-chlorophenyl)-2-cyano-3-[2-(difluoromethoxy)phenyl]prop-2-enamide]",76.7041%
12,"COCC(C)NC(=O)C(C#N)=Cc1cc2cc(F)ccc2o1 (centres unmarked) [9-F04, 2-cyano-3-(5-fluoro-1-benzofuran-2-yl)-N-(1-methoxypropan-2-yl)prop-2-enamide]",100.375%
13,"CS(=O)(=O)N1CCCc2cc(C(=O)CCl)ccc21 [10-H19, 2-chloro-1-(1-methanesulfonyl-1,2,3,4-tetrahydroquinolin-6-yl)ethan-1-one]",1.5625%
14,"CN(Cc1ccc(N(C)C)cc1)C(=O)CCl.Cl [5-F06, 2-chloro-N-{[4-(dimethylamino)phenyl]methyl}-N-methylacetamide hydrochloride]",105.647%
15,"C=CC(=O)N(C)CC(=O)N1CCn2cc(C(F)(F)F)nc2C1 [3-A04, N-methyl-N-{2-oxo-2-[2-(trifluoromethyl)-5H,6H,7H,8H-imidazo[1,2-a]pyrazin-7-yl]ethyl}prop-2-enamide]",110.753%
16,"CN(C)S(=O)(=O)c1cc(NC(=O)CCl)ccc1Cl [5-E13, 2-chloro-N-[4-chloro-3-(dimethylsulfamoyl)phenyl]acetamide]",108.197%
17,"NC(=O)c1coc(C(=O)CCl)c1 [10-C05, 5-(2-chloroacetyl)furan-3-carboxamide]",105.938%
18,"CC(Cl)C(=O)N1CCN(CC(F)(F)F)CC1C(C)C (centres unmarked) [7-C22, 2-chloro-1-[2-(propan-2-yl)-4-(2,2,2-trifluoroethyl)piperazin-1-yl]propan-1-one]",69.3878%
19,"CC(Cl)C(=O)NC1CCN(CC(=O)Nc2ccccc2)CC1 (centres unmarked) [7-E13, 2-chloro-N-{1-[(phenylcarbamoyl)methyl]piperidin-4-yl}propanamide]",94.1915%
20,"C=CC(=O)NCCc1c(C)oc2ccccc12 [1-N07, N-[2-(2-methyl-1-benzofuran-3-yl)ethyl]prop-2-enamide]",109.011%
21,"CC(Cl)C(=O)NC(C)c1nc(Cc2ccccc2)no1 (centres unmarked) [7-B19, N-[1-(3-benzyl-1,2,4-oxadiazol-5-yl)ethyl]-2-chloropropanamide]",70.9576%
22,"C=CC(=O)Nc1nn(C2CCCC2)c(C)c1Cl [1-O06, N-(4-chloro-1-cyclopentyl-5-methyl-1H-pyrazol-3-yl)prop-2-enamide]",120.264%
23,"O=C(CCl)NCC1(c2ccccc2)CCOCC1 [6-I07, 2-chloro-N-[(4-phenyloxan-4-yl)methyl]acetamide]",92.1951%
24,"C=CC(=O)Nc1nc(C)c(CC(C)C)s1 [1-J12, N-[4-methyl-5-(2-methylpropyl)-1,3-thiazol-2-yl]prop-2-enamide]",123.78%
25,"C=CC(=O)N(Cc1ccc(OC)cc1)[C@@H]1CCCC[C@H]1O [2-M05, N-[(1R,2R)-2-hydroxycyclohexyl]-N-[(4-methoxyphenyl)methyl]prop-2-enamide]",114.186%
26,"CC(Cl)C(=O)NCc1noc2ccccc12 (centres unmarked) [7-I14, N-[(1,2-benzoxazol-3-yl)methyl]-2-chloropropanamide]",108.32%
27,"CC(C)c1ccc(C(C)NC(=O)CCl)cc1 (centres unmarked) [4-I05, 2-chloro-N-{1-[4-(propan-2-yl)phenyl]ethyl}acetamide]",78.8947%
28,"CC(Cl)C(=O)N[C@H]1CN(Cc2ccccc2)C[C@@H]1c1ccccc1 (mixture of isomers) [7-N09, rac-N-[(3R,4S)-1-benzyl-4-phenylpyrrolidin-3-yl]-2-chloropropanamide]",77.237%
29,"Cc1nc2ccccc2n(CCCNC(=O)C(C)Cl)c1=O (centres unmarked) [7-O21, 2-chloro-N-[3-(3-methyl-2-oxo-1,2-dihydroquinoxalin-1-yl)propyl]propanamide]",91.3658%
